According to the BET-seq Pho4 binding data (Le et al. 2018):
This is one part of the list. These are noisy estimates, calculated here from bound and input reads.

Target: T1, Pho4 (S. cerevisiae) (UniProt P07270)
T1 sequence: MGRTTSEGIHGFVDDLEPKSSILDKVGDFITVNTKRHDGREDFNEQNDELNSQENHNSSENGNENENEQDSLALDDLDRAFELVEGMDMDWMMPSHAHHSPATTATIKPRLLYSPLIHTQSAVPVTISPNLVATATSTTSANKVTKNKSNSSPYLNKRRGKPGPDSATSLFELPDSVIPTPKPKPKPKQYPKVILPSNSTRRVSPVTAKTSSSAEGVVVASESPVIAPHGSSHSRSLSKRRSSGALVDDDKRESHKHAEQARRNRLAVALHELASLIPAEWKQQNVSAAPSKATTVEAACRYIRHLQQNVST
Assay: relative binding free energy (BET-seq); higher = weaker binding
Details: reference: library average

Sequence	relative binding free energy [kcal/mol]
AGGCGCACGTGTTAGG	-0.08
TAGTTCACGTGTGAGG	0.32
GTGGTCACGTGATAGT	0.25
ATTCACACGTGTTGTA	0.19
GGGTCCACGTGGTATT	-0.08
TCGAACACGTGGGTTT	0
TTATGCACGTGTGAGG	0.14
AATATCACGTGGAGTT	0.3
AGTAGCACGTGCGGTT	0.01
GAGTCCACGTGGGGGC	-0.03
TAAGGCACGTGGTATG	-0.21
GTCGGCACGTGTCGGG	0.08
TAGAGCACGTGGGATG	-0.14
CTGGTCACGTGTCGGG	0.08
TGGTACACGTGTTTGA	0.1
TAGTGCACGTGGCCGT	-0.15
GTGTACACGTGCTGTG	-0.02
GGATTCACGTGGGGCT	0.15
GGTTACACGTGTGAGC	0.31
TGGCACACGTGCTGGT	-0.01
TTTTTCACGTGTTTCT	0.27
GGGAGCACGTGGATGG	-0.15
AGTGTCACGTGCGGTA	-0.09
GTATGCACGTGCTTTG	-0.08
TGTTGCACGTGTGGCC	0.03
TAATGCACGTGCAGTG	0.07

Sequence	relative binding free energy [kcal/mol]
AGGTTCACGTGTTACG	0.39
TCGATCACGTGAAGGG	0.35
AAATGCACGTGTATTT	0.03
TATGACACGTGAGTAT	0.21
GGAAGCACGTGCTGTT	-0.11
ATATTCACGTGTGAGC	0.35
GTTCTCACGTGTCGGG	0.43
GGTGCCACGTGTGGAA	0.12
CGTGTCACGTGCTTTT	0
GTGTTCACGTGGTGGG	0.24
GTGATCACGTGAAGAG	0.32
ATGAACACGTGGGCTG	-0.12
GTAGCCACGTGTTAGG	-0.12
TCCAACACGTGGGGGG	-0.05
ACAGGCACGTGGGTAA	-0.28
ATGGTCACGTGTCAGT	0.15
ATGAGCACGTGGGTGA	-0.24
CGTGACACGTGTGTGT	0.13
AGGCTCACGTGTGGAG	0.24
TGAGGCACGTGTTAAT	-0.01
ATACTCACGTGGGCGG	0.19
ATTATCACGTGGAATG	0.32
CGGACCACGTGGAGGG	0.19
TGTTACACGTGGGATG	0.06
GTACTCACGTGTGTTT	0.3
TTGTACACGTGGTAGC	-0.09

Sequence	relative binding free energy [kcal/mol]
ATGTACACGTGTTGGC	0.02
AAATACACGTGGTGAT	0.06
TTTTTCACGTGCGTCG	0.04
GGCAGCACGTGAGGGT	0.17
GCTTGCACGTGGTGGA	-0.03
TTATTCACGTGAACGG	0.33
AGCGGCACGTGGGAAT	-0.19
ATATTCACGTGCGTGG	0.09
TGTTGCACGTGAATTT	0.29
ATGGGCACGTGCGTGC	-0.18
TGGGGCACGTGCAGTA	-0.12
TTTAGCACGTGTGGGG	0
ATAGGCACGTGGCTAG	-0.26
GTTCGCACGTGGTCAG	-0.07
TGTAACACGTGCTGAT	0.01
TATGGCACGTGAGGGG	0.12
TTGTCCACGTGATAGA	0.38
GAGTTCACGTGTGCGT	0.09
GGTGTCACGTGTTTAC	0.12
GAGCACACGTGTTGGG	0.21
GTGGGCACGTGTCGCG	-0.06
CATGTCACGTGGATTA	0.25
GTTGGCACGTGGTACG	-0.13
TGCGTCACGTGGGCTT	-0.07
TGTGACACGTGGGGTA	-0.13
TCAGTCACGTGGTGAA	0.1

Sequence	relative binding free energy [kcal/mol]
TTTTGCACGTGTGCGA	-0.02
AATGACACGTGAGATG	0.31
TTCGGCACGTGGCAGG	-0.15
TTATACACGTGTAGTA	0
TAGGGCACGTGGATCT	-0.11
TTTGACACGTGGGAAA	-0.04
CATGTCACGTGTTGTT	0.11
GTAATCACGTGCGGTT	0.17
TCGTTCACGTGCGTAT	0.3
GTGGACACGTGGCGAT	0.13
CTGGGCACGTGAAAGT	0.12
TCATTCACGTGTAGTG	0.27
GTTCACACGTGGGGCG	0.15
CGGTACACGTGAGCGG	0.32
ATGAGCACGTGACGTG	0.08
TTTTACACGTGTGTCG	0.21
TGGCGCACGTGGTATT	-0.28
GGAATCACGTGCGTTG	0.02
TTTGACACGTGGGCGG	-0.02
TTTATCACGTGCCTTT	0.2
TGGCTCACGTGTGGTA	0.25
AGTAACACGTGTGTGG	0.01
GGCGTCACGTGTGATG	0.24
TTTGACACGTGGGATA	-0.01
ATGGGCACGTGAGCAG	-0.02
TGGGGCACGTGCCAGG	-0.25

Sequence	relative binding free energy [kcal/mol]
CGTGACACGTGGTTGA	-0.08
ATAGACACGTGAGGTG	0.19
GAATACACGTGGGGCG	-0.1
ATGTACACGTGAGCTT	0.35
GGTGCCACGTGTAGGT	0.03
TGGGGCACGTGTACGT	-0.01
GGTTGCACGTGGTCTG	-0.05
GATGTCACGTGGGAAT	-0.03
CTTGACACGTGAGGGA	0.36
TTTTTCACGTGGCTCT	0.19
TAAGACACGTGCGGGT	-0.07
TAAACCACGTGGTGTT	-0.12
TTCAGCACGTGACGGG	0.09
GCGAGCACGTGCGGGA	0.03
ACTGGCACGTGTGTTA	-0.07
CAGGCCACGTGTGGGT	-0.07
TTTTACACGTGTATAG	0.04
GTAATCACGTGCTTGG	0.21
ATCGGCACGTGCGGGT	-0.2
TCTTACACGTGAGGTT	0.19
GTTTGCACGTGATCAG	0.11
ATGAGCACGTGGCCGG	-0.21
TTTAGCACGTGTCGGA	-0.02
ATAATCACGTGGGTGA	-0.07
TGTAACACGTGGCTTT	-0.06
AGTGGCACGTGATGGA	0.07

Sequence	relative binding free energy [kcal/mol]
TAATCCACGTGGTTTA	0.17
GGCAGCACGTGAGGTT	0.28
AGATGCACGTGAGGGA	0.12
AATTGCACGTGGGGGG	-0.12
GATTGCACGTGTTATG	0.06
GGGCTCACGTGGGGAC	0.11
TTGGGCACGTGATTAA	0.08
AGTCTCACGTGTTTAA	0.17
TTCTACACGTGAATAG	0.53
GGGGTCACGTGCGTGC	-0.01
TATGTCACGTGCTTAG	-0.02
GGTCTCACGTGAAGGA	0.34
AGTGACACGTGCTGGG	-0.16
GGAAGCACGTGGGGCG	-0.16
AGGATCACGTGAAGGT	0.21
GTGGTCACGTGGGTCC	0.12
TGAATCACGTGTGGAA	0.24
TTTGACACGTGTGTTT	0.18
AATAGCACGTGTGGAA	-0.05
TATTTCACGTGAACTT	0.23
AGAGGCACGTGTTAGA	-0.15
TATGTCACGTGAGGAA	0.24
AATGTCACGTGTAAGG	0.23
AGTCACACGTGCGGGT	0.03
AGTTGCACGTGTCAAG	0
AGTTTCACGTGAGCGT	0.3

Sequence	relative binding free energy [kcal/mol]
TGGCGCACGTGTTTGA	-0.15
GGTTGCACGTGTCGCA	0.08
ATGAGCACGTGATTAG	0
TTTCTCACGTGGACTG	0.31
GGGTACACGTGAACGT	0.24
TGGGTCACGTGCAATA	0.1
GTGTACACGTGGGGAC	-0.12
CAGGACACGTGGATGT	0.02
ATTGACACGTGTTGCT	-0.04
AAGTTCACGTGGGGGG	0.12
GTGTGCACGTGCTTAG	0
AGCGTCACGTGGGAAG	0.08
ACTTGCACGTGGCTGG	0.05
TTAACCACGTGATTGG	0.14
GTCTACACGTGTTAGT	0.25
AGATGCACGTGGAATG	-0.15
CGTGTCACGTGCGGGC	0
TGCGGCACGTGCTGAG	-0.18
TGGGTCACGTGATATG	0.09
ATAGTCACGTGGGACT	0
GGTTACACGTGCTGAG	0.03
GGTGCCACGTGAATGT	0.21
CGTGGCACGTGGAGAT	-0.04
TACGTCACGTGGCGTT	-0.05
ATGCTCACGTGTATTG	0.13
GAAGTCACGTGCTGTG	0.07

Sequence	relative binding free energy [kcal/mol]
GGTGACACGTGTAGCT	0.16
TTTAACACGTGCTGTG	-0.12
GTATTCACGTGTGGGC	0.34
GGTTCCACGTGAGCGG	0.24
GCTTACACGTGGGTGA	-0.01
TAAGTCACGTGTTTAC	0.13
TGTAACACGTGGGTTG	-0.06
GTCTTCACGTGAAGGG	0.46
TAGTTCACGTGTTGGA	0.31
CGATACACGTGGTAGG	0.01
TGGGTCACGTGAATTC	0.36
TCTGTCACGTGGGAGA	0.18
ATTTACACGTGTTAGT	0.24
TGGCGCACGTGGGATG	-0.31
TTTATCACGTGTGGTA	0.12
AGGATCACGTGGGTGA	0.14
TCTAGCACGTGTTGTG	-0.22
AAGGTCACGTGGTTGC	0.03
GGGTCCACGTGTGCTG	-0.02
AGAGACACGTGGATTG	0.05
AGTGTCACGTGCGAGG	-0.1
GTGGCCACGTGTAGTT	-0.09
TTATGCACGTGTAATA	0.03
TCTATCACGTGCGGGT	0.1
ATATACACGTGGGTGA	-0.18
TTACGCACGTGCTGTG	-0.22

Sequence	relative binding free energy [kcal/mol]
TGATGCACGTGTTAAG	0.03
CGAGTCACGTGGGGTA	-0.03
GTTGGCACGTGTGTAT	0.05
ATAGACACGTGTGTTA	0.13
TGGTTCACGTGTAGCA	0.38
TTTTACACGTGTGAGT	0.23
GTTGCCACGTGTTGGC	-0.02
CAAGACACGTGGGTGT	-0.15
GTTAACACGTGGTCAT	0.18
CTTGGCACGTGGGTAC	-0.27
TCTAGCACGTGAGTGG	-0.04
GTAGTCACGTGATTGT	0.18
GTGGTCACGTGATTGT	0.33
CGGCACACGTGGGGTG	-0.21
ATAAGCACGTGTTAGA	-0.14
GTGAGCACGTGCGGCG	-0.15
TGAAACACGTGGTGTT	-0.1
CGTCGCACGTGAATGG	0.16
GATTACACGTGGGTGC	0.14
GGTTACACGTGTGTAG	0.3
CTTATCACGTGTTGGA	0.11
GTGACCACGTGAAGGG	0.2
